Results published in the supplement of paper PMC12645437, “Orthogonal IMiD-Degron Pairs Induce Selective Protein Degradation in Cells” (ACS Chemical Biology, 2025).
The other results are listed elsewhere or left out.

What follows are sequences tested against no compound (DMSO) (assay: log2 fold change of degron read counts, EGFP-low vs EGFP+ sorted cells; higher = lower degron-EGFP level without compound (poor expression or instability)). Conditions: compound: DMSO control; 18 h.
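Also: jurkat cells carrying a lentiviral library of mutant zinc finger degrons fused to EGFP plus mCherry, mCherry+ cells FACS sorted, degron abundance counted by next-generation sequencing.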

| Sequence | log2 fold change of degron read counts |
| --- | --- |
| FECSVCGHSFTQKGNLLRHIKL | -1.61 |
| FECPICGHWFTQKGNLLRHIKL | -0.518 |
| FDCPQCGAYFTQKGNLLRHIKL | -0.321 |
| LRCEICGFQCTQKGNLLRHIKL | -0.406 |
| FGCPQCGAGFTQKGNLLRHIKL | -1.28 |
| FCCPVCGAVFTQKGNLLRHIKL | -0.161 |
| FDCEQCGADFTQKGNLLRHIKL | -1.02 |
| FYCDQCGAIFTQKGNLLRHIKL | -0.263 |
| FDCNQCGHVFTQKGNLLRHIKL | 0.705 |
| FDCNICGAWFTQKGNLLRHIKL | 0.926 |
| FYCNQCGAGFTQKGNLLRHIKL | -0.259 |
| FWCPICGHSFTQKGNLLRHIKL | 1.07 |
| LLCEICGFLCTQKGNLLRHIKL | 1.37 |
| FMCEVCGARFTQKGNLLRHIKL | -1.65 |
| FTCPVCGAMFTQKGNLLRHIKL | -0.185 |
| FRCDICGAAFTQKGNLLRHIKL | -1.19 |
| LYCPICGFGCTQKGNLLRHIKL | 1.34 |
| FVCPVCGAYFTQKGNLLRHIKL | 0.865 |
| FQCDVCGASFTQKGNLLRHIKL | -2.15 |
| LMCNQCGFPCTQKGNLLRHIKL | 0.289 |
| FWCDVCGAPFTQKGNLLRHIKL | -0.561 |
| FGCPICGARFTQKGNLLRHIKL | -1.29 |
| LMCPICGFVCTQKGNLLRHIKL | 0.928 |
| FQCPICGHIFTQKGNLLRHIKL | -0.259 |
| FECSVCGHAFTQKGNLLRHIKL | -1.39 |

| Sequence | log2 fold change of degron read counts |
| --- | --- |
| FQCEICGRYFTQKGNLLRHIKL | -1.22 |
| FLCPICGHTFTQKGNLLRHIKL | -1.2 |
| FVCEICGHVFTQKGNLLRHIKL | -1.33 |
| FRCEQCGAMFTQKGNLLRHIKL | -1.64 |
| FECEICGHYFTQKGNLLRHIKL | -1.09 |
| FFCSVCGHPFTQKGNLLRHIKL | 0.827 |
| FICPICGHFFTQKGNLLRHIKL | 0.574 |
| FNCEICGRLFTQKGNLLRHIKL | -0.777 |
| FYCEVCGAAFTQKGNLLRHIKL | -0.879 |
| FECEICGREFTQKGNLLRHIKL | -2.03 |
| FICNQCGHIFTQKGNLLRHIKL | 0.505 |
| FNCDQCGASFTQKGNLLRHIKL | -1.74 |
| FICPVCGAHFTQKGNLLRHIKL | -0.0492 |
| FMCEQCGAEFTQKGNLLRHIKL | -2.99 |
| FVCPICGREFTQKGNLLRHIKL | -1.01 |
| FECEICGHWFTQKGNLLRHIKL | -1.04 |
| LDCEICGFECTQKGNLLRHIKL | -0.25 |
| LRCNQCGFSCTQKGNLLRHIKL | 1.05 |
| FQCNQCGRPFTQKGNLLRHIKL | -0.585 |
| FMCPICGATFTQKGNLLRHIKL | -0.124 |
| FLCDQCGAQFTQKGNLLRHIKL | -2.23 |
| FWCDICGAMFTQKGNLLRHIKL | -0.0369 |
| FHCNQCGAWFTQKGNLLRHIKL | 0.164 |
| FCCEICGHAFTQKGNLLRHIKL | -2.46 |
| FMCDQCGAYFTQKGNLLRHIKL | -0.689 |
